Results on 45 molecules are retold here after PMC4336329 (PLoS ONE, 2015).

The structures appear in SMILES notation. Out of some 310,000 compounds screened, about 2,200 (0.71%) showed an effect of 50% or more. Effects have a minus sign here. This is one part of the list.

human ether-à-go-go-related gene (hERG) potassium channel, sequence (Q12809 whole entry, looked up): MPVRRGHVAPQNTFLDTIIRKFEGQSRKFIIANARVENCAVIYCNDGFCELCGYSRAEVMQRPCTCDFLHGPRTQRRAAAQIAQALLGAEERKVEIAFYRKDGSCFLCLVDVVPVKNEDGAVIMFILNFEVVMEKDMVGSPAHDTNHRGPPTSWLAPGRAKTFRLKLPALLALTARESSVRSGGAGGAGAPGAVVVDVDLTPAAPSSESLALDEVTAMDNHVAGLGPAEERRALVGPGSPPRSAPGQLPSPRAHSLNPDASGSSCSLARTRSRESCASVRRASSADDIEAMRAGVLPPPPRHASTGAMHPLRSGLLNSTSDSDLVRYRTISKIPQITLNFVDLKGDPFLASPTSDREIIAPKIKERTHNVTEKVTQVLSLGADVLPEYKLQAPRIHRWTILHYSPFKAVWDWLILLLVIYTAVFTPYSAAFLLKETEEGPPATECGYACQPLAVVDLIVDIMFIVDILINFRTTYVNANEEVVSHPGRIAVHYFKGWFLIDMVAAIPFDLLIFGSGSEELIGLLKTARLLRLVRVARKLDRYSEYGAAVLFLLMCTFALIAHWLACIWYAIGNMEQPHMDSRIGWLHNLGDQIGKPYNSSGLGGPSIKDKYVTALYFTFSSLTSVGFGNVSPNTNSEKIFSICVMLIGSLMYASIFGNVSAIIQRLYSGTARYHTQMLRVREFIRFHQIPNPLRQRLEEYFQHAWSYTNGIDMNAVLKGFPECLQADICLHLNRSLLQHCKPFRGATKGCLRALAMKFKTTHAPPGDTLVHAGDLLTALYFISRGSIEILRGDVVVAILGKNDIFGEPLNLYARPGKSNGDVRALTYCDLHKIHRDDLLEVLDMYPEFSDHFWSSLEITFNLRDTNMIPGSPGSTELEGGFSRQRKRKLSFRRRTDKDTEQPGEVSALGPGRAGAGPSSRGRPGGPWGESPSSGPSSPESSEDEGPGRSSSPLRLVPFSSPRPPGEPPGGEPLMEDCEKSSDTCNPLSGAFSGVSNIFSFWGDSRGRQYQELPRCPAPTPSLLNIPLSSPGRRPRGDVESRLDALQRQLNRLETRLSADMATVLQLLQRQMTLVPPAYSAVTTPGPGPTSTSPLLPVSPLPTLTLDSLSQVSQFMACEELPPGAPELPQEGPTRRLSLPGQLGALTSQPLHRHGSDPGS

The experiment has as its target human ether-à-go-go-related gene (hERG) potassium channel (human, UniProt Q12809). Kind of experiment: primary screen, population patch clamp on CHO cells stably expressing hERG.
With `CC(C)(C)C(=O)/C(=C/c1ccc(Cl)cc1)n1cncn1`, the “hERG current change (%, negative = inhibition) at 1uM” value came out at 9.34%. As to `N#Cc1ccc(NC(=O)CN2CCN(c3ccccn3)CC2)cc1`, the “hERG current change (%, negative = inhibition) at 1uM” value is -42.8%. `COC(=O)c1sccc1-n1cccc1C(=O)C(=O)N1CCCC1`: the “hERG current change (%, negative = inhibition) at 1uM” value came to 6.84%. In the case of `CN(CC(=O)Nc1cccc(F)c1)C(=O)CSc1ccc(Br)cc1`, the “hERG current change (%, negative = inhibition) at 1uM” value came out at 5.81%. The value for `COC(=O)C1=C(C)N(Cc2ccccc2)C(=O)/C1=C\c1ccco1` was 9.3%; that for `Cc1ccc(-c2cc(C(F)F)n3ncc(C(=O)N4CCN(c5ccccn5)CC4)c3n2)cc1` was 14.4%; that for `CCN(CC(=O)Nc1ccccc1C(F)(F)F)C(=O)Cc1sc(C)nc1-c1ccc(F)cc1` was -14.1%. As to `Cc1cc(Cl)ccc1C(=O)C1CCCN(C(=O)c2cncs2)C1` (stereo not drawn), the “hERG current change (%, negative = inhibition) at 1uM” value is given as 8.3%. `COc1ccc(NC(=O)c2ccc[n+]([O-])c2)cc1`: the “hERG current change (%, negative = inhibition) at 1uM” value was determined as 12%. Then `COCCN(C(=O)CNC(=O)c1ccco1)C(C(=O)NC1CCCCC1)c1cccnc1` (stereo not drawn), with 15%; and `Cc1ccc2c(c1)C(=O)C(=O)N2CC(=O)Nc1ccc(N2CCOCC2)cc1`, with 4.39%; and `CC(C)(C)n1nc2c(c1NC(=O)c1cc3ccccc3o1)CS(=O)(=O)C2`, with -5.51%. In the case of `Cn1c(CNC(=O)CNC(=O)Cc2ccc(Cl)cc2)cc(=O)n(C)c1=O`, the “hERG current change (%, negative = inhibition) at 1uM” value amounted to 15.7%.

On to `CN(C(=O)CSc1nnc(-c2ccc3c(c2)OCO3)o1)C1CCS(=O)(=O)C1` (stereo not drawn), for which the “hERG current change (%, negative = inhibition) at 1uM” value was -8.12%. As for `CC(=O)Nc1ccc(S(=O)(=O)NCCN2CCNC2=O)cc1Cl`, the “hERG current change (%, negative = inhibition) at 1uM” value was 7.27%.

As to `CN(C)C(=O)c1cc(C(=O)c2ccc(Cl)cc2Cl)c[nH]1`, the “hERG current change (%, negative = inhibition) at 1uM” value turned out to be 12.2%.

For the molecule `O=C1CC(c2nc3ccccc3[nH]2)CN1Cc1ccccc1` (stereo not drawn), the “hERG current change (%, negative = inhibition) at 1uM” value is on record as 10.6%. `Nc1c(Cl)cc(-c2[nH]c3cc(C(=O)NCCO)ccc3c(=O)c2O)cc1Cl`: the “hERG current change (%, negative = inhibition) at 1uM” value was 12.4%. `O=C(NNC(=O)c1cc2cc3ccccc3nc2s1)c1ccc(F)cc1`: the “hERG current change (%, negative = inhibition) at 1uM” value worked out at 6.27%. `Cc1nnc2c(-c3ccccc3)nc3ccccc3n12`: the “hERG current change (%, negative = inhibition) at 1uM” value is 9.33%. As for `CC(=O)Nc1ccc(NC(=O)CSc2ccc3nnc(-c4cccnc4)n3n2)cc1`, the “hERG current change (%, negative = inhibition) at 1uM” value stood at 9.14%. Then `CCN(CC)S(=O)(=O)c1ccc2c(c1)nc(CCC(=O)Nc1ccc3c(c1)OCO3)n2CC`, with 12.9%; and `Cc1ccc(O)c(NC(=O)COc2cc(C)ccc2C)c1`, with -6.02%; and `CC(=O)OC/C=C(\C)CCC=C(C)C`, with 10.2%.

With `COc1ccc2[nH]c3c(c2c1)CCN=C3C`, the “hERG current change (%, negative = inhibition) at 1uM” value is on record as -8.34%. The value for `CCOC(=O)C1=C(COC(=O)Cc2ccccc2F)NC(=O)NC1C` (stereo not drawn) was 15.5%. The value for `COc1ccc(C(=O)NC2CCN(C(=S)Nc3cccc(C)c3)CC2)cc1` was 1.55%; that for `COc1ccc(S(=O)(=O)Nc2ccc3cn[nH]c3c2)cc1C` was 15.4%; that for `COc1ccc(CCN2C(=O)CC(Cc3cccc(C)c3)C2=O)cc1OC` (stereo not drawn) was 7.96%. Then `O=C(Cn1cccc1C(=O)c1ccccc1)NCc1cccnc1`, with 7.63%; and `COC(=O)CCS(=O)(=O)c1nc(-c2ccccc2)cc(C(F)(F)F)n1`, with 3.29%. On to `O.O=C(O)c1cc(S(=O)(=O)O)ccc1O`, for which the “hERG current change (%, negative = inhibition) at 1uM” value amounted to 15%. Then `CC(=O)c1ccc(C#CC(C)(C)O)s1`, with 14.3%; and `CCOC(=O)C1CCN(c2cc3c(cc2NC(=O)c2ccccc2OCC)n(C)c(=O)n3C)CC1`, with 14.6%; and `COc1ccc(CCNC(=O)c2cc(C3CC3)on2)cc1OC`, with 14.5%. Then `Fc1cccc(Cl)c1CSc1ncn[nH]1`, with -1.27%; and `CN(C)CCNC(=O)COc1ccc(Cl)cc1Cl`, with 6.76%; and `COc1ccccc1N1CCN(/N=C/c2ccc(OC)c(OC)c2OC)CC1`, with 8.28%. With `CCOc1ccc(NC(=O)c2nnn(CC(=O)Nc3ccccc3OC)c2N)cc1`, the “hERG current change (%, negative = inhibition) at 1uM” value is 9.46%. Then `CCOC(=O)C(=CNc1cc(C)nn1-c1ccccc1)C(=O)OCC`, with 7.67%. The value for `COc1ccc(Cl)cc1NC(=O)COC(=O)CCNC(C)=O` was 4.56%. The value for `COc1ccc(OC)c(-c2csc(CCn3nc(C)cc3C)n2)c1` was 10.6%; that for `CC(=O)NC(c1cccs1)c1cc(F)c2cccnc2c1O` (stereo not drawn) was 15.9%; that for `COCCNC(=O)CN1CCCCCC1.Cl` was 14.1%. Consider `CCc1ccc(NC(=S)N2CCC(NC(=O)C3CCCCC3)CC2)cc1`, for which the “hERG current change (%, negative = inhibition) at 1uM” value worked out at 16.4%.
